Structures are written as SMILES. Several values for one entry are separate records, joined by “and”; a condition that tells them apart may be missing. Equal values may be shown once. In all, about 48,000 compounds went through this assay and about 1,200 (2.5%) were called active. Not shown: some 2% with an inconclusive outcome.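 How the source made its calls: active means activation of at least 60% and not above a set upper limit (about 1 call in 100 departs from these limits); inconclusive means activation of 40% to 60%, or above that upper limit; inactive means activation under 40%.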 The list shows a part of the results.

The test addresses Probable G-protein coupled receptor 32 (Homo sapiens) (UniProt O75388). In words: qHTS for Agonists of Human Resolvin D1 Receptor DRV1. Further: 0% is about no effect. To be noted: CHO-K1 GPR32 beta-arrestin PathHunter luminescence, 90 min; at 76.9 µM; stronger effect = higher value; zero percent set by DMSO-only wells. The procedure, abridged: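 Readings come from a cell-based beta-arrestin complementation format: CHO-K1 GPR32 stable cells (2,500/well) treated 90 min with compounds, then beta-Gal substrate added for 1 h before chemiluminescence imaging.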
UniProt O75388, sequence (O75388 whole entry, looked up): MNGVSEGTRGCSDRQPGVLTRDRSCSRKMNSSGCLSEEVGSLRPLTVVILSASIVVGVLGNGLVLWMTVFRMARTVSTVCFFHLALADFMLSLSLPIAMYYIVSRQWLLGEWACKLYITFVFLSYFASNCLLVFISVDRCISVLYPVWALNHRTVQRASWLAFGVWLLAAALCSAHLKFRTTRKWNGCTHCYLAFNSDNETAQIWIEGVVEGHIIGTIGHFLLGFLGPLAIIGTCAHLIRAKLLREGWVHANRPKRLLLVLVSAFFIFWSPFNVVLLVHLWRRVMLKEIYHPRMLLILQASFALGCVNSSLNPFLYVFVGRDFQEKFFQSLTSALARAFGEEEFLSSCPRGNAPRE
As to `CCOC(=O)c1c(C)[nH]c(CCC(=O)Nc2ccccc2C(=O)OC)c1C`, the activation is inactive: -20.7%.
Then `Cc1ccc(N2CCN(C(=O)c3cn(C)c4ccc(S(=O)(=O)N(C)C5CCCCC5)cc4c3=O)CC2C)cc1` (centres undefined), with inactive: 21.7%; and `COc1ccc(CCNC(=O)CCS(=O)(=O)c2ccc3c(c2)oc(=O)n3C)cc1OC`, with inactive: -11.8%; and `CCCCOCc1cc(CN2CCN(c3cccc(Cl)c3)CC2)c(O)c2ncccc12`, with inactive: 10.6%.
Take `CCOc1ccc(NS(=O)(=O)c2ccc(NC(=O)N3CCCC3)cc2)cc1`: the activation was active: 64.7%.
On to `O=C(CSc1nnc(CNC(=O)c2c(F)cccc2Cl)o1)Nc1cccc(F)c1`, for which the activation is inactive: 4.75%.
Then `CCOc1ccc(C(=O)N2CCN(Cc3cc(=O)n4nc(-c5ccccc5Cl)sc4n3)CC2)cc1`, with inactive: -2.94%.
For `O=C(Nc1ccc2nn(-c3ccccc3)nc2c1)c1ccc(-c2cccc(Cl)c2)o1` the value was inactive: 13.5%; for `CCOC(=O)[C@H](CCc1ccccc1)N[C@@H](C)C(=O)N(CC(=O)O)C1Cc2ccccc2C1`, inactive: -6.94%; for `COc1ccccc1NC(=O)C1=C(C)Nc2nc(SCc3cc(C)ccc3C)nn2C1c1ccccc1` (centres undefined), inactive: -2.74%.
Then `O=C(c1cccs1)N1CCCc2cc(NS(=O)(=O)c3ccc(F)cc3)ccc21`, with inactive: -20.8%; and `CC(C)Cn1c(/C=C/c2ccc(F)cc2)nc2ccccc21`, with inactive: -41.1%.
For `COCCCNC(=O)CCc1c(C)nc2cc(-c3ccc(Cl)cc3)nn2c1C`, the activation was inactive: 3.75%.
Then `O=C(c1ccc2c(=O)n(CCc3ccccc3)c(=O)[nH]c2c1)N1CCN(c2ccc(Cl)cc2)CC1`, with inactive: 22.9%; and `COc1cc2nc(Cl)nc(N)c2cc1OC`, with inactive: -0.114%; and `CCn1c(C)c(C)c2cc(C(=O)NCCc3ccc(C)cc3)ccc21`, with inactive: -29%.
Then `COc1ccc(CC(=O)Nc2sc3c(c2C(=O)Nc2c(C)cccc2C)CCCCC3)cc1`, with inactive: -5.37%.
Consider `COc1ccc(NC(=O)CSC2=Nc3ccccc3C3=NC(CC(=O)NCc4ccc(F)cc4)C(=O)N23)cc1` (centres undefined), for which the activation was inactive: -22.7%.
Then `Cc1ccc(Cl)cc1NC(=O)C(=O)NCCc1sc(-c2ccc(F)cc2)nc1C`, with inactive: -0.551%; and `CCc1ccc(-c2nn(CC(=O)NC3CCCCC3)c3c2cnc2ccc(OC)cc23)cc1`, with inactive: -6.94%.
For `COc1cccc(NC(=O)/C(C#N)=C\c2cn(Cc3ccc(Cl)cc3)c3ccccc23)c1` the value was inactive: 5.05%; for `Cc1cccc(S(=O)(=O)c2cn(Cc3ccccc3)c3cc(N4CCCCC4C)c(F)cc3c2=O)c1` (centres undefined), inactive: 1.79%; for `COc1ccc(CNC(=O)Cn2c(=O)oc3cc(S(=O)(=O)N4CCCC4)ccc32)cc1`, inactive: 13.1%.
Then `CCCOc1ccc(C(=O)Nc2c(C(=O)c3ccc(C)cc3)oc3ccccc23)cc1`, with inactive: -26.2%; and `Cc1cc(C(F)F)n2nc(C(=O)Nc3ccc(F)c(Cl)c3)nc2n1`, with inactive: 5.98%; and `CCc1nc2ccc(C(=O)N3CCN(c4ccc(Cl)cc4)CC3)cc2nc1CC`, with inactive: -11.3%.
As for `Cc1ccc(Cl)cc1N1CCN(C(=O)c2ccc(C)c(-n3c(C)nc4cccnc43)c2)CC1`, the activation is inactive: 1.89%.
Then `CCCCc1ccc(C(=O)N/C(=C\c2ccc(C)cc2)C(=O)NC2CCCCC2)cc1`, with inactive: 31.8%; and `O=C(CC1N=C2c3ccccc3N=C(SCc3ccccc3F)N2C1=O)NCc1cccs1` (centres undefined), with inactive: -4.68%.
For `COc1cccc(Nc2nc(-c3ccccc3)c3cc(C)ccc3n2)c1` the value was inactive: -39.9%.
For `Cc1cccc(CNC(=O)c2ccc(Cn3c(=O)c4cccn4c4cccnc43)cc2)c1` the value was inactive: -12.7%; for `COc1cc(C2CC(=O)Nc3c2c(=O)nc2c(C)cccn32)cc(OC)c1OC` (centres undefined), inactive: -0.0409%; for `CC1CCCCN1S(=O)(=O)c1ccc2c(c1)oc(=O)n2CC(=O)Nc1ccc(Cl)cc1` (centres undefined), inactive: 8%.
Consider `CCCCNc1cc(C(=O)O)cc(S(N)(=O)=O)c1Oc1ccccc1`, for which the activation was inactive: 2.02% and inactive: 5.01%.
As for `Cc1ccc(NC(=O)C(Cc2ccccc2)NS(=O)(=O)c2cccc3nsnc23)c(C)c1` (centres undefined), the activation was inactive: -17.8%.
For the compound `CCN(CCCNC(=O)c1cc2cc3ccc(OC)cc3nc2s1)c1ccccc1`, the activation was active: 95.8%.
Then `CCOc1cc(C2c3c(-c4ccccc4O)n[nH]c3C(=O)N2CCc2ccccc2)ccc1O` (centres undefined), with inactive: -2.86%.
For `CNC(=O)COc1ccc(Nc2nnc(-c3ccc(C)c(S(=O)(=O)NC(C)(C)C)c3)c3ccccc23)cc1`, the activation is inactive: -23.7%.
For `COc1cc(NC(=O)Cn2cc(S(=O)(=O)c3ccccc3)c(=O)c3ccccc32)cc(OC)c1` the value was inactive: -6.84%; for `COc1ccc(-c2cc(C(F)(F)F)nc(SCCC(=O)Nc3c(C)cccc3C)n2)cc1`, inactive: -12.9%.
In the case of `COc1cccc(-c2ccc3c(N)c(C(=O)Nc4ccc(C)c(F)c4)sc3n2)c1`, the activation was inactive: 0.822%.
For `CCc1ccc(C2c3c(oc4ccc(C)cc4c3=O)C(=O)N2c2nc(C)c(C)s2)cc1` (centres undefined) the value was inactive: 5.96%.
Then `O=C(NCC12CC3CC(CC(C3)C1)C2)c1cc2nc(-c3ccc(F)cc3)cc(C(F)(F)F)n2n1`, with inactive: 0.192%; and `O=C(Nc1ccc(F)cc1F)c1ccc(-n2cnnc2)cc1`, with inactive: -11.4%; and `Cc1ccc(OCC(=O)Nc2ccc(C(=O)OCc3cc(=O)n4c(C)csc4n3)cc2)cc1`, with inactive: -5.32%.
For the compound `COc1ccc(-c2onc(C)c2C)cc1S(=O)(=O)NC1CCC(C)CC1` (centres undefined), the activation was inactive: 11.9%.
For `Cc1cccc(NC(=O)CSc2cc(C)c3ccccc3n2)c1` the value was inactive: 6.36%; for `Cc1cc(-n2c(C)nc3ccccc3c2=O)ccc1NC(=O)c1cccc([N+](=O)[O-])c1`, inactive: 45.2%; for `Cc1ccc(-n2c(=O)c3oc4ccccc4c3n(CC(=O)Nc3ccccc3)c2=O)cc1C`, inactive: -22%.
Turning to `CC(C)CNC(=O)C1=CC(c2ccc3c(c2)OCO3)=NS(=O)(=O)N1C`, the activation is inactive: -0.0228%.
Then `Cc1ccc(Cn2c(CNC(=O)c3ccccc3Br)nc3cccnc32)cc1`, with inactive: -19.8%; and `CCc1ccccc1NC(=O)Cc1c(C(=O)O)[nH]c2ccc(Cl)cc12`, with inactive: 8.67%.
On to `COc1ccc(N2CCN(C(=O)Nc3cccc(C(F)(F)F)c3)CC2)cc1`, for which the activation was inactive: 27.8%.
For `Oc1c(C(c2ccccc2)N2CCN(c3ccccc3)CC2)sc2nc(-c3ccco3)nn12` (centres undefined) the value was inactive: -1.51%; for `O=C(NCCc1ccccc1)C(=O)Nc1cccc(Br)c1`, inactive: 1.32%.
Then `CCOC(=O)c1c(NC(=O)c2cc(-c3ccc(OC)cc3)on2)sc(C)c1C`, with inactive: -9.06%; and `O=C(CSc1nc(=O)[nH]c2c1CCC2)NCc1ccccc1`, with inactive: -4.63%.
For `CO/N=C(\C(=O)O)c1csc(NC(=O)CCl)n1` the value was inactive: -45.9%; for `Cn1c(CCNC(=O)c2ccco2)nc2cc(NC(=O)COc3ccc(Cl)cc3)ccc21`, inactive: -8.74%; for `Cc1ccc(C(=O)COC(=O)CCC(=O)Nc2ccc(Oc3ccccc3)cc2)cc1C`, inactive: -11.7%.
`O=C1CC(c2ccc(Cl)cc2)N=C(NC(=O)c2ccccc2)N1` (centres undefined): the activation is inactive: -8.83%.
Then `COc1cccc(NC(=O)CCNC(=O)Cn2ccc3ccccc3c2=O)c1`, with inactive: 10.5%; and `Cc1ccc(C)c(NC(=O)c2cc(=O)c3cc(C)cc(C)c3o2)c1`, with inactive: -30.5%.
On to `Cc1ccc(NC(=O)Cn2c(=O)ccc3cc(S(=O)(=O)N4CCC(C)CC4)ccc32)cc1Cl`, for which the activation is inactive: -7.17%.
For `CC(C)C(=O)OCc1cc(=O)n2nc(C3CCCCC3)sc2n1` the value was inactive: -8.93%; for `Cc1ccc(NC(=O)CSc2nnc(N)s2)c(C)c1`, inactive: -0.0851%; for `COc1ccc(CNC(=O)C2CCN(S(=O)(=O)c3cccc4nonc34)CC2)cc1OC`, inactive: -21%.
Then `CCc1ccc(NCc2cc3cc4c(cc3n(CC(=O)Nc3ccc(F)cc3)c2=O)OCCO4)cc1`, with inactive: -55%; and `COCCNc1ncnc2c1c(-c1ccccc1)cn2-c1cccc(Cl)c1`, with inactive: -32.5%; and `CCCCNC(=O)CCc1c(C)nc2c(c(C)nn2-c2ccccc2)c1C`, with inactive: 21.7%.
For `CCN(CC)c1ccc(C2C(C(N)=O)=C(C)Nc3ncnn32)cc1` (centres undefined) the value was inactive: 22.7%; for `Cn1ccnc1SCC(=O)Nc1cc(Cl)ccc1Cl`, inactive: -4.3%; for `Cc1ccc(NC(=O)C2CCCN2S(=O)(=O)c2cccc3cccnc23)cc1C` (centres undefined), inactive: -7.03%.
For the compound `Cc1cccc(CS(=O)(=O)c2ncc(Cl)c(C(=O)NCc3ccccc3)n2)c1`, the activation is inactive: -29.1%.
Take `COc1cccc(OCc2nc3ccccc3n2CCOc2cccc(C)c2)c1`: the activation was inactive: -28.4%.
Then `O=C(NCCc1ccccc1)c1cc(Sc2ccc(F)cc2F)nc2ccccc12`, with inactive: -17.2%.
For `COc1ccccc1N1CCN(C(CNC(=O)C(=O)NCCc2ccccc2)c2cccnc2)CC1` (centres undefined) the value was inactive: 35.8%; for `Cc1ccccc1CN1CCCN(CC(=O)Nc2c(C)cccc2C)S1(=O)=O`, inactive: -9.71%; for `Cc1cc(O)c(C(C)C)cc1Cl`, active: 85.6%.
Then `Fc1ccc(CNc2nc(-c3ccccc3)cc(C(F)(F)F)n2)cc1`, with inactive: 9.87%; and `Cn1c(=O)c2c(nc(SCC(=O)Nc3ccc(F)cc3)n2Cc2ccccc2)n(C)c1=O`, with inactive: 2.09%.
Turning to `CCC(C(=O)Nc1ccc(C(C)=O)cc1)n1c(C)c2cnn(-c3ccccc3)c(=O)c2c1C` (centres undefined), the activation was inactive: 0%.
For `CCOc1ccc(CCNC(=O)c2ccc3nc(CC)c(CC)nc3c2)cc1` the value was inactive: -35.6%; for `O=C(Nc1ccc(F)cc1F)c1ccc2c(=O)n3c(nc2c1)CCCCC3`, inactive: 28.6%.
